# Experimental data as given in the supplement of paper PMC8728848.
# The other results are listed elsewhere or left out.
# B1: F17-L (Escherichia coli) (protein)
# chain: GPDDYVPSQIAVNTSTLPGVVIGPADAHTYPRVIGELAGTSNQYVFNGGAIALMRGKFTPALPKIGSITYTFHQGNSRDSSDFDIYDIGVSGLGIIIGMAGYWPATPLVPINSSGIYIDPVGANTNPNTYNGATASFGARLFVAFVATGRLPNGYITIPTRQLGTILLEAKRTSLNNKGLTAPVMLNGGRIQVQSQTHHHHHH
# Tests used:
# Test in all cases: glycan array binding signal (z-score within array); higher = stronger binding
# Details in all cases: glycan notation: IUPAC condensed, linker removed
# [1] = molecular target: Neu5Ac(a2-3)Gal(b1-3)[Fuc(a1-4)]GlcNAc(b1-3)Gal(b1-3)[Fuc(a1-4)]GlcNAc
# Summary of the method: (§1)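 Columns mapping to the same glycan were averaged after glycan names were converted to IUPAC-condensed notation. The data come from 3228 arrays in the Consortium for Functional Glycomics database, limited to those with an available protein sequence. Binding is reported as a within-array Z-score averaged across arrays of one protein sequence and across linkers.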
# [2] = molecular target: Neu5Ac(a2-3)Gal(b1-3)[Fuc(a1-4)]GlcNAc(b1-3)Gal(b1-4)[Fuc(a1-3)]GlcNAc
# Summary of the method: as §1
# [3] = molecular target: Neu5Ac(a2-3)Gal(b1-3)[GlcNAc(b1-6)]GalNAc
# Summary of the method: as §1
# [4] = molecular target: Neu5Ac(a2-3)Gal(b1-3)[Neu5Ac(a2-6)]GalNAc
# Summary of the method: as §1
# [5] = molecular target: Neu5Ac(a2-3)Gal(b1-3)[Neu5Ac(a2-6)]GlcNAc(b1-3)[Fuc(a1-3)[Gal(b1-4)]GlcNAc(b1-6)]Gal(b1-4)Glc
# Summary of the method: as §1
# [6] = molecular target: Neu5Ac(a2-3)Gal(b1-3)]Neu5Ac(a2-3)Gal(b1-4)]GlcNAc
# Summary of the method: as §1
# [7] = molecular target: Neu5Ac(a2-3)Gal(b1-4)Glc
# Summary of the method: as §1
# [8] = molecular target: Neu5Ac(a2-3)Gal(b1-4)GlcNAc
# Summary of the method: as §1
# [9] = molecular target: Neu5Ac(a2-3)Gal(b1-4)GlcNAc(b1-2)Man
# Summary of the method: as §1
# [10] = molecular target: Neu5Ac(a2-3)Gal(b1-4)GlcNAc(b1-2)Man(a1-3)[GlcNAc(b1-4)][Neu5Ac(a2-3)Gal(b1-4)GlcNAc(b1-2)Man(a1-6)]Man(b1-4)GlcNAc(b1-4)GlcNAc
# Summary of the method: as §1
# [11] = molecular target: Neu5Ac(a2-3)Gal(b1-4)GlcNAc(b1-2)Man(a1-3)[Neu5Ac(a2-3)Gal(b1-4)GlcNAc(b1-2)Man(a1-6)]Man(b1-4)GlcNAc(b1-4)GlcNAc
# Summary of the method: as §1
# [12] = molecular target: Neu5Ac(a2-3)Gal(b1-4)GlcNAc(b1-2)Man(a1-3)[Neu5Ac(a2-3)Gal(b1-4)GlcNAc(b1-2)Man(a1-6)]Man(b1-4)GlcNAc(b1-4)[Fuc(a1-6)]GlcNAc
# Summary of the method: as §1
# [13] = molecular target: Neu5Ac(a2-3)Gal(b1-4)GlcNAc(b1-2)Man(a1-3)[Neu5Ac(a2-6)Gal(b1-4)GlcNAc(b1-2)Man(a1-6)]Man(b1-4)GlcNAc(b1-4)GlcNAc
# Summary of the method: as §1
# [14] = molecular target: Neu5Ac(a2-3)Gal(b1-4)GlcNAc(b1-2)[Neu5Ac(a2-3)Gal(b1-4)GlcNAc(b1-4)]Man(a1-3)[GlcNAc(b1-4)][Neu5Ac(a2-3)Gal(b1-4)GlcNAc(b1-2)[Neu5Ac(a2-3)Gal(b1-4)GlcNAc(b1-6)]Man(a1-6)]Man(b1-4)GlcNAc(b1-4)GlcNAc
# Summary of the method: as §1
# [15] = molecular target: Neu5Ac(a2-3)Gal(b1-4)GlcNAc(b1-2)[Neu5Ac(a2-3)Gal(b1-4)GlcNAc(b1-4)]Man(a1-3)[GlcNAc(b1-4)][Neu5Ac(a2-3)Gal(b1-4)GlcNAc(b1-4)Man(a1-6)]Man(b1-4)GlcNAc(b1-4)GlcNAc
# Summary of the method: as §1
# [16] = molecular target: Neu5Ac(a2-3)Gal(b1-4)GlcNAc(b1-2)[Neu5Ac(a2-3)Gal(b1-4)GlcNAc(b1-6)]Man(a1-6)[Neu5Ac(a2-3)Gal(b1-4)GlcNAc(b1-2)Man(a1-3)]Man(b1-4)GlcNAc(b1-4)GlcNAc
# Summary of the method: as §1
# [17] = molecular target: Neu5Ac(a2-3)Gal(b1-4)GlcNAc(b1-2)[Neu5Ac(a2-3)Gal(b1-4)GlcNAc(b1-6)]Man(a1-6)[Neu5Ac(a2-3)Gal(b1-4)GlcNAc(b1-2)Man(a1-3)][GlcNAc(b1-4)]Man(b1-4)GlcNAc(b1-4)GlcNAc
# Summary of the method: as §1
# [18] = molecular target: Neu5Ac(a2-3)Gal(b1-4)GlcNAc(b1-3)Gal
# Summary of the method: as §1
# [19] = molecular target: Neu5Ac(a2-3)Gal(b1-4)GlcNAc(b1-3)Gal(b1-3)GlcNAc
# Summary of the method: as §1
# [20] = molecular target: Neu5Ac(a2-3)Gal(b1-4)GlcNAc(b1-3)Gal(b1-4)GlcNAc
# Summary of the method: as §1
# [21] = molecular target: Neu5Ac(a2-3)Gal(b1-4)GlcNAc(b1-3)Gal(b1-4)GlcNAc(b1-2)Man(a1-3)[Neu5Ac(a2-3)Gal(b1-4)GlcNAc(b1-3)Gal(b1-4)GlcNAc(b1-2)Man(a1-6)]Man(b1-4)GlcNAc(b1-4)GlcNAc
# Summary of the method: as §1
# [22] = molecular target: Neu5Ac(a2-3)Gal(b1-4)GlcNAc(b1-3)Gal(b1-4)GlcNAc(b1-3)Gal(b1-4)GlcNAc
# Summary of the method: as §1
# [23] = molecular target: Neu5Ac(a2-3)Gal(b1-4)GlcNAc(b1-3)Gal(b1-4)GlcNAc(b1-3)Gal(b1-4)GlcNAc(b1-2)Man(a1-3)[Neu5Ac(a2-3)Gal(b1-4)GlcNAc(b1-3)Gal(b1-4)GlcNAc(b1-3)Gal(b1-4)GlcNAc(b1-2)Man(a1-6)]GalNAc
# Summary of the method: as §1
# [24] = molecular target: Neu5Ac(a2-3)Gal(b1-4)GlcNAc(b1-3)Gal(b1-4)GlcNAc(b1-3)GalNAc
# Summary of the method: as §1
# [25] = molecular target: Neu5Ac(a2-3)Gal(b1-4)GlcNAc(b1-3)Gal(b1-4)GlcNAc(b1-3)[Neu5Ac(a2-3)Gal(b1-4)GlcNAc(b1-3)Gal(b1-4)GlcNAc(b1-6)]GalNAc
# Summary of the method: as §1
# [26] = molecular target: Neu5Ac(a2-3)Gal(b1-4)GlcNAc(b1-3)Gal(b1-4)GlcNAc(b1-6)[Gal(b1-3)]GalNAc
# Summary of the method: as §1
# [27] = molecular target: Neu5Ac(a2-3)Gal(b1-4)GlcNAc(b1-3)Gal(b1-4)[Fuc(a1-3)]GlcNAc
# Summary of the method: as §1
# [28] = molecular target: Neu5Ac(a2-3)Gal(b1-4)GlcNAc(b1-3)GalNAc
# Summary of the method: as §1
# [29] = molecular target: Neu5Ac(a2-3)Gal(b1-4)GlcNAc(b1-3)[Neu5Ac(a2-3)Gal(b1-4)GlcNAc(b1-6)]GalNAc
# Summary of the method: as §1
# [30] = molecular target: Neu5Ac(a2-3)Gal(b1-4)GlcNAc(b1-6)GalNAc
# Summary of the method: as §1
binder,measurement,setting,value
B1,glycan array binding signal (z-score),[1],0.431
same,glycan array binding signal (z-score),[2],0.865
same,glycan array binding signal (z-score),[3],-0.089
same,glycan array binding signal (z-score),[4],-0.109
same,glycan array binding signal (z-score),[5],-0.114
same,glycan array binding signal (z-score),[6],0.01
same,glycan array binding signal (z-score),[7],0.383
same,glycan array binding signal (z-score),[8],-0.104
same,glycan array binding signal (z-score),[9],-0.024
same,glycan array binding signal (z-score),[10],-0.132
same,glycan array binding signal (z-score),[11],-0.186
same,glycan array binding signal (z-score),[12],-0.016
same,glycan array binding signal (z-score),[13],-0.145
same,glycan array binding signal (z-score),[14],-0.152
same,glycan array binding signal (z-score),[15],-0.155
same,glycan array binding signal (z-score),[16],-0.043
same,glycan array binding signal (z-score),[17],-0.058
same,glycan array binding signal (z-score),[18],-0.131
same,glycan array binding signal (z-score),[19],-0.166
same,glycan array binding signal (z-score),[20],-0.207
same,glycan array binding signal (z-score),[21],-0.12
same,glycan array binding signal (z-score),[22],0.099
same,glycan array binding signal (z-score),[23],-0.031
same,glycan array binding signal (z-score),[24],-0.144
same,glycan array binding signal (z-score),[25],-0.087
same,glycan array binding signal (z-score),[26],-0.139
same,glycan array binding signal (z-score),[27],0.006
same,glycan array binding signal (z-score),[28],-0.16
same,glycan array binding signal (z-score),[29],0.084
same,glycan array binding signal (z-score),[30],-0.122
